Data taken from patent publication US8158586B2, “Inhibitors of protein kinases and uses thereof” (priority 2005, dated 2012).
“And” between values parts separate entries of the source, which are not always exact repeats. Equal entries are not always repeated. At least one structure is not confirmed: it was looked up by name or label, or the drawing left a doubt. Some compounds share one wording; it may come from a single statement. Positions of bridges follow the written chain, without caps; N, C: chain ends. Non-standard residues stand in square brackets, D forms with d. Residues, ends and D or L forms follow the SMILES beside them. Chains are numbered I, II in the order given. *: point of attachment. PNA(A) = NCCN(CC(=O)*)C(=O)Cn1cnc2c(N)ncnc21; Adenin9ylacetyl = Nc1ncnc2c1ncn2CC(=O)*; N(CH2CH2NHAc)Gly = CC(=O)NCCNCC(=O)O

Legend:
[1] = tested on: MDA-MB-231 breast cancer cell line; assay: Cell death at 24 h after pinocytic loading, MDA-MB-231; type: cell-based
[2] = tested on: LNCap prostate cancer cell line; assay: Cell death at 24 h after pinocytic loading, LnCAP; type: cell-based
Bcl-2 = assay: Bcl2 sublocalization, immunolabelling; type: cell-based; settings: for Bcl2 label intensity, Perinuclear: control 0; for Bcl2 label intensity, Cytoplasmic: control 1; for Bcl2 label intensity, Nuclear: control 2
pERK1/2 = pERK1/2 in serum-stimulated IMR-32 neuroblastoma cells, immunofluorescence (indirect MEK1/2); type: cell-based, human; settings: 5 mM loading, control stimulated 105.3, control starved 59.5
STAT-3 = STAT-3 phosphorylation (Ser727, Tyr 705) in IL-6 treated U-251 cells, immunocytochemistry; type: cell-based, human; settings: 5 mM loading; for Anti-Serine Antibody FL Density: pSTAT3 Ser727, control 70.15; for Anti-Tyrosine Antibody FL Density: pSTAT3 Tyr 705, control 43
[3] = tested on: human neuroblastoma cell line IMR-32; assay: Inhibition of IMR-32 cell proliferation (pinocytic loading, Hoechst total DNA); type: cell-based
[4] = tested on: MRP-1 expression in H-661 NSCLC cells; assay: MRP-1 expression in H-661 NSCLC cells, flow cytometry; type: cell-based
[5] = tested on: Pgp expression in H-661 NSCLC cells; assay: Pgp expression in H-661 NSCLC cells, flow cytometry; type: cell-based
[6] = tested on: Pgp expression in LS180 colon cancer cells; assay: Pgp expression in LS180 colon cancer cells, flow cytometry; type: cell-based; settings: for Cells expressing Pgp, +Doxorubicin (A) / Cells expressing Pgp, No Doxorubicin (B) / Pgp Ratio A/B: compound 5 μM; for P-gp basal expression: without doxorubicin
PKC-alpha [7] = target: T1, PKC-alpha (Homo sapiens, UniProt P17252); assay: In vitro inhibition of purified PKC-alpha (IQ PKC assay kit); type: biochemical; settings: 10 μg per assay
T1 construct: purchased Upstate Cell Signalling Solutions 14-484

[8] = tested on: U-251 glioblastoma cell line; assay: Cell death at 24 h after pinocytic loading, U251; type: cell-based, human
[9] = tested on: IMR-32 neuroblastoma cell line; assay: Cell death at 24 h after pinocytic loading, IMR32; type: cell-based, human
[10] = tested on: DU-145 prostate cancer cell line; assay: Cell death at 24 h after pinocytic loading, Du145; type: cell-based
[11] = tested on: T-24 bladder cancer cell line; assay: Cell death at 24 h after pinocytic loading, T24; type: cell-based
PKC-alpha [12] = assay: In vitro inhibition of PKC-alpha in IMR-32 cell lysate (IQ PKC assay kit); type: biochemical, human; settings: IMR-32 cell lysate as enzyme source; various doses
[13] = tested on: H-661 non-small cell lung cancer cell line; assay: Cell death at 24 h after pinocytic loading, H661; type: cell-based
[14] = tested on: MRP-1 expression in LS180 colon cancer cells; assay: MRP-1 expression in LS180 colon cancer cells, flow cytometry; type: cell-based; settings: for Cells expressing MRP-1, +Doxorubicin (A) / Cells expressing MRP-1, No Doxorubicin (B) / MRP-1 Ratio A/B: compound 5 μM
[15] = 24 h, 1.0 mg/ml in loading medium
[16] = 24 h, 2.5 mg/ml in loading medium
[17] = 24 h, 5.0 mg/ml in loading medium
[18] = 24 h, 10.0 mg/ml in loading medium
[19] = 48 h, 1.0 mg/ml in loading medium
[20] = 48 h, 2.5 mg/ml in loading medium
[21] = 48 h, 5.0 mg/ml in loading medium
[22] = 48 h, 10.0 mg/ml in loading medium
[23] = 72 h, 1.0 mg/ml in loading medium
[24] = 72 h, 2.5 mg/ml in loading medium
[25] = 72 h, 5.0 mg/ml in loading medium
[26] = 72 h, 10.0 mg/ml in loading medium

## CC[C@H](C)[C@H](NC(=O)[C@H](CSSC[C@H](NC(=O)CNC(=O)CN(CCNC(C)=O)C(=O)Cn1cnc2c(N)ncnc21)C(=O)N[C@@H](CCCCN)C(=O)NCC(=O)N[C@@H](CCCCN)C(=O)N[C@@H](Cc1ccccc1)C(=O)N[C@@H](CCCCN)C(=O)N[C@@H](CCCNC(=N)N)C(N)=O)NC(=O)[C@H](Cc1c[nH]cn1)NC(C)=O)C(=O)NCC(=O)N[C@@H](CCCNC(=N)N)C(=O)N[C@@H](Cc1ccccc1)C(=O)N[C@@H](CCCCN)C(N)=O [Compound 1] (I: Adenin9ylacetyl-[N(CH2CH2NHAc)Gly]GCKGKFKR-NH2 / II: Ac-HCIGRFK-NH2; disulfide I:3-II:2; N-terminus and C-terminus assumed)
[1]; 5 mM
  Percentage Cell Death at 24 h, MDA-MB-231: 1%
[1]; 10 mM
  Percentage Cell Death at 24 h, MDA-MB-231: 5%
[2]; 5 mM
  Percentage Cell Death at 24 h, LnCAP: 16%
[2]; 10 mM
  Percentage Cell Death at 24 h, LnCAP: 19%
Bcl-2
  Bcl2 label intensity, Perinuclear: 1
  Bcl2 label intensity, Cytoplasmic: 1
  Bcl2 label intensity, Nuclear: 2
pERK1/2
  pERK1/2 FL Density: 59.9
STAT-3
  inhibition of Tyr phosphorylation of STAT-3: ~30%
  Anti-Serine Antibody FL Density: 91.2
  Anti-Tyrosine Antibody FL Density: 31.65
[3]; 24 h, 1.0 mg/ml
  % inhibition: 70%
[3]; [15]
  Average cell no.: 226
[3]; 24 h, 2.5 mg/ml
  % inhibition: 26%
[3]; [16]
  Average cell no.: 552
[3]; 24 h, 5.0 mg/ml
  % inhibition: 29%
[3]; [17]
  Average cell no.: 532
[3]; 24 h, 10.0 mg/ml
  % inhibition: 26%
[3]; [18]
  Average cell no.: 557
[3]; 48 h, 1.0 mg/ml
  % inhibition: 72%
[3]; [19]
  Average cell no.: 368
[3]; 48 h, 2.5 mg/ml
  % inhibition: 29%
[3]; [20]
  Average cell no.: 937
[3]; 48 h, 5.0 mg/ml
  % inhibition: 31%
[3]; [21]
  Average cell no.: 921
[3]; 48 h, 10.0 mg/ml
  % inhibition: 30%
[3]; [22]
  Average cell no.: 929
[3]; 72 h, 1.0 mg/ml
  % inhibition: 72%
[3]; [23]
  Average cell no.: 358
[3]; 72 h, 2.5 mg/ml
  % inhibition: 14%
[3]; [24]
  Average cell no.: 1104
[3]; 72 h, 5.0 mg/ml
  % inhibition: 22%
[3]; [25]
  Average cell no.: 999
[3]; 72 h, 10.0 mg/ml
  % inhibition: 22%
[3]; [26]
  Average cell no.: 1009
[4]; compound 5 μM
  Cells expressing MRP-1, +Doxorubicin (A): 34.08% and 36.13%
  Cells expressing MRP-1, No Doxorubicin (B): 5.5% and 2.84%
[5]; compound 5 μM
  Cells expressing Pgp, +Doxorubicin (A): 46.27% and 58.89%
  Cells expressing Pgp, No Doxorubicin (B): 4.72% and 1.78%
[6]; cells exposed to doxorubicin
  Pgp expression levels: moderate decrease
[6]
  Cells expressing Pgp, +Doxorubicin (A): 11.3%
  Cells expressing Pgp, No Doxorubicin (B): 5.37%
  Pgp Ratio A/B: 2.10
  P-gp basal expression: decreased the basal expression to a variable extent
PKC-alpha [7]
  inhibition of purified PKC-alpha activity: showed inhibitory activity
[8]; 5 mM
  Percentage Cell Death at 24 h, U251: 7%
[8]; 10 mM
  Percentage Cell Death at 24 h, U251: 16%
[9]; 5 mM
  Percentage Cell Death at 24 h, IMR32: 2%
[9]; 10 mM
  Percentage Cell Death at 24 h, IMR32: 7%
[10]; 5 mM
  Percentage Cell Death at 24 h, Du145: 17%
[10]; 10 mM
  Percentage Cell Death at 24 h, Du145: 14%
[11]; 5 mM
  Percentage Cell Death at 24 h, T24: 1%
[11]; 10 mM
  Percentage Cell Death at 24 h, T24: 4%
PKC-alpha [12]
  inhibition of PKC-alpha in cell lysate: good activity but no dose response
[13]; 5 mM
  Percentage Cell Death at 24 h, H661: 46%
[13]; 10 mM
  Percentage Cell Death at 24 h, H661: 12%
[14]
  Cells expressing MRP-1, +Doxorubicin (A): 12.2%
  Cells expressing MRP-1, No Doxorubicin (B): 4.55%
  MRP-1 Ratio A/B: 2.68
[14]; without doxorubicin
  basal expression of MRP-1: lower values than that of the controls

## CC(=O)N[C@@H](CC(C)C)C(=O)N[C@@H](CCCNC(=N)N)C(=O)N[C@@H](CCCNC(=N)N)C(=O)N[C@@H](C)C(=O)N[C@@H](CCCCNC(=O)CN(CCN)C(=O)Cn1cnc2c(N)ncnc21)C(=O)N[C@@H](CC(C)C)C(=O)NCC(=O)O [Compound 2] (Ac-LRRAK(PNA(A))LG-OH; N-terminus and C-terminus assumed)
[1]; 5 mM
  Percentage Cell Death at 24 h, MDA-MB-231: 8%
[1]; 10 mM
  Percentage Cell Death at 24 h, MDA-MB-231: 13%
[2]; 5 mM
  Percentage Cell Death at 24 h, LnCAP: 13%
[2]; 10 mM
  Percentage Cell Death at 24 h, LnCAP: 11%
Bcl-2
  effect on Bcl2 expression and localisation: mediates the translocation of the Bcl2 protein in the nucleus
  Bcl2 label intensity, Perinuclear: 1
  Bcl2 label intensity, Cytoplasmic: 1
  Bcl2 label intensity, Nuclear: 3
pERK1/2
  pERK1/2 FL Density: 93
STAT-3
  inhibition of Tyr phosphorylation of STAT-3: ~30%
  Anti-Serine Antibody FL Density: 98.83
  Anti-Tyrosine Antibody FL Density: 30.58
[3]; 24 h, 1.0 mg/ml
  % inhibition: 49%
[3]; [15]
  Average cell no.: 382
[3]; 24 h, 2.5 mg/ml
  % inhibition: 29%
[3]; [16]
  Average cell no.: 526
[3]; 24 h, 5.0 mg/ml
  % inhibition: 31%
[3]; [17]
  Average cell no.: 516
[3]; 24 h, 10.0 mg/ml
  % inhibition: 31%
[3]; [18]
  Average cell no.: 516
[3]; 48 h, 1.0 mg/ml
  % inhibition: 51%
[3]; [19]
  Average cell no.: 669
[3]; 48 h, 2.5 mg/ml
  % inhibition: 21%
[3]; [20]
  Average cell no.: 1090
[3]; 48 h, 5.0 mg/ml
  % inhibition: 20%
[3]; [21]
  Average cell no.: 1099
[3]; 48 h, 10.0 mg/ml
  % inhibition: 29%
[3]; [22]
  Average cell no.: 981
[3]; 72 h, 1.0 mg/ml
  % inhibition: 10%
[3]; [23]
  Average cell no.: 1240
[3]; 72 h, 2.5 mg/ml
  % inhibition: 26%
[3]; [24]
  Average cell no.: 1023
[3]; 72 h, 5.0 mg/ml
  % inhibition: 17%
[3]; [25]
  Average cell no.: 1140
[3]; 72 h, 10.0 mg/ml
  % inhibition: 21%
[3]; [26]
  Average cell no.: 1081
[4]; without doxorubicin
  MRP-1 expression: decreased MRP-1 expression
[5]; cells exposed to doxorubicin
  P-gp expression: clear decrease
[5]; compound 5 μM
  Cells expressing Pgp, No Doxorubicin (B): 0.79% and 10.45% and 3.08%
[6]
  Cells expressing Pgp, +Doxorubicin (A): 11.36% and 21.06%
  Cells expressing Pgp, No Doxorubicin (B): 3.58% and 3.47%
  Pgp Ratio A/B: 3.17 and 6.07
  P-gp basal expression: decreased the basal expression to a variable extent
PKC-alpha [7]
  inhibition of purified PKC-alpha activity: showed inhibitory activity
[8]; 5 mM
  Percentage Cell Death at 24 h, U251: 31%
[8]; 10 mM
  Percentage Cell Death at 24 h, U251: 32%
[9]; 5 mM
  Percentage Cell Death at 24 h, IMR32: 0%
[9]; 10 mM
  Percentage Cell Death at 24 h, IMR32: 0%
[10]; 5 mM
  Percentage Cell Death at 24 h, Du145: 1%
[10]; 10 mM
  Percentage Cell Death at 24 h, Du145: 8%
[11]; 5 mM
  Percentage Cell Death at 24 h, T24: 3%
[11]; 10 mM
  Percentage Cell Death at 24 h, T24: 3%
PKC-alpha [12]
  inhibition of PKC-alpha in cell lysate: good activity but no dose response
[13]; 5 mM
  Percentage Cell Death at 24 h, H661: 6%
[13]; 10 mM
  Percentage Cell Death at 24 h, H661: 34%
[14]
  Cells expressing MRP-1, +Doxorubicin (A): 18.76% and 17.81%
  Cells expressing MRP-1, No Doxorubicin (B): 5.85% and 8.99%
  MRP-1 Ratio A/B: 3.21 and 1.98
